From PubChem BioAssay AID1745845 (National Center for Advancing Translational Sciences (NCATS), 2022)
Out of some 360,000 compounds screened, about 2,600 (0.72%) were called active. Inconclusive means that the source gave no clear call. Such entries were picked first, then a sample of the others. Calls come from the whole dose curve; as a rule, active = well fitted inhibition curve with a large enough effect; inconclusive = small, poorly fitted or top-dose-only effect; inactive = no such curve, though single readings can be large or run the other way. Potencies beside an inconclusive call are fits to weak or partial responses and may not hold up.

assay: Primary qHTS for Inhibitors of ATXN expression; conditions: HEK-293 ATXN2-luciferase reporter, luminescence, 24 h; activity change, negative = inhibition: at 57 µM (top of the series); note: nearly all actives have a fitted effect of over 55% in size
Outline: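 ATXN2-luciferase reporter cells (luciferase flanked by upstream and downstream ATXN2 gene portions) were treated 24 h at 37 °C with compounds at up to 57 uM. SteadyGlo luminescence gave expression; GF-AFC fluorescence gave viability.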
% is set by controls: 0 for no effect and ±100 for the full control effect; potency is the fitted concentration of half-maximal effect; tags give direction and shape of the fitted curve.

Potency, active:
CCN1/C(=C/c2ccc3ccccc3[n+]2CC)C=Cc2ccccc21 3.16 µM
COc1cccc(CN2CCC2(C)C(=O)Nc2cccc3cccnc23)c1OC (stereo not drawn) 2.51 µM
NS(=O)(=O)c1ccc(CCNc2nn3c(-c4cccc(OC(F)(F)F)c4)cnc3s2)cc1 25.1 µM
CC(NC(=O)CCc1nnc(-c2ccc(-c3ccccc3)cc2)o1)c1nc2ccccc2[nH]1 (stereo not drawn) 3.77 µM
CCCCOc1c(C(=O)c2c(F)cc(C)cc2F)cnc2n[nH]cc12 9.68 µM

Potency, inconclusive:
Cn1c(=O)c2c(nc(Cl)n2CCOc2ccccc2)n(C)c1=O 12.6 µM [inhibitor, partial curve, poor fit]
Clc1cccc(CNc2ccn3nc(-c4ccc(OCCN5CCOCC5)cc4)cc3n2)c1 35.5 µM [inhibitor, single point]
COc1ccc(C(=O)c2c(N)sc3c2CCN(C(=O)OC(C)(C)C)C3)cc1 11.2 µM [inhibitor, partial curve, poor fit]
COc1ccc(S(=O)(=O)c2c(SC)nn(CC(=O)Nc3cccc(C)c3C)c2N)cc1 28.2 µM [inhibitor, partial curve, poor fit]
O=S(=O)(NCc1cc(-c2ccccc2Cl)no1)c1ccc(Cl)cc1 39.8 µM [inhibitor, partial curve, poor fit]
Cc1cccc(NC(c2ccccc2C)c2ccc3ccc(C)nc3c2O)n1 (stereo not drawn) 22.4 µM [inhibitor, partial curve]
O=C(Nc1ccc(Cl)cc1)C1Cc2c(-c3ccc(Cl)cc3)ccnc2O1 (stereo not drawn) 35.5 µM [inhibitor, single point]
Cc1ccc(CSc2nnc(-c3ccccn3)n2Cc2cccs2)cc1 39.8 µM [inhibitor, single point]
CC(C)n1c(/N=C/c2c[nH]c3ccccc23)nc2ccccc21 25.1 µM [inhibitor, single point]
CC(=O)c1ccc(OCC(O)CN(C)CCOc2ccc(Br)cc2)cc1 (stereo not drawn) 28.2 µM [inhibitor, partial curve, poor fit]
Cc1cc(Nc2sc(C(=O)c3ccc(F)cc3)c(N)c2C(=O)Nc2ccc(F)cc2)ccc1Cl 10 µM [inhibitor, partial curve]
O=CNc1cc(-c2cccc(F)c2)cn2c(-c3ccc(F)c(Cl)c3)cnc12 31.6 µM [inhibitor, partial curve, poor fit]
CCC(C)[C@H]1CN=C(N)N1CCc1cc(C(F)(F)F)cc(C(F)(F)F)c1 (stereo partly drawn) 28.2 µM [inhibitor, single point]
COc1ccc(N(C(=O)COc2c(C)cccc2C)S(=O)(=O)c2ccc(Cl)cc2)cc1 39.8 µM [inhibitor, single point]
O=C(c1ccc(-c2ccc(Cl)cc2)o1)N1CCN(c2ccc([N+](=O)[O-])cc2Cl)CC1 3.16 µM [inhibitor, partial curve, poor fit]
CC(=O)NC(c1cccs1)c1cc(F)c2cccnc2c1O (stereo not drawn) 3.98 µM [inhibitor, full curve]
Cn1c(CCN2CCN(c3ccccn3)CC2)nc2cc(NC(=O)COc3ccc(Cl)cc3)ccc21 20 µM [inhibitor, partial curve, poor fit]
Oc1c(N=NC(=S)Nc2ccccc2F)c2ccccc2n1Cc1ccccc1F 3.77 µM [inhibitor, partial curve, poor fit]
COc1cc(C#Cc2c(-c3cncn3C)n(C)c3ccc(-c4cc(OC)c(OC)c(OC)c4)cc23)cc(OC)c1 31.6 µM [inhibitor, single point]
CC(C)(C)c1ccc(S(=O)(=O)Nc2ccc(C(O)(C(F)(F)F)C(F)(F)F)cc2)cc1 39.8 µM [inhibitor, single point]
C=CCn1c(O)c(N=NC(=S)Nc2ccccc2F)c2ccccc21 8.44 µM [inhibitor, partial curve, poor fit]
COc1ccc(NC(=O)C2CCN(c3cc(-c4ccccc4)nc4ncnn34)CC2)cc1OC 12.6 µM [inhibitor, partial curve, poor fit]
CC(C)(C)OC(=O)NCCCC[C@H](NC(=O)c1nc[nH]c1C(=O)NC1CCN(C(=O)OC(C)(C)C)CC1)C(=O)OC(C)(C)C 39.8 µM [inhibitor, single point]
CC1=CC(C)(C)N2C(=O)C(=Nc3ccc(O)cc3)c3cccc1c32 31.6 µM [inhibitor, single point]
COC(=O)[C@]12CCCCC=C1N(Cc1cccc3ccccc13)C(=O)[C@H](CC(=O)NCCc1ccccc1OC)C2 31.6 µM [inhibitor, partial curve, poor fit]
CCCCCCN1C[C@H](n2cc(C3CC3)nn2)[C@@H](O)C[C@@H]1c1ccc(C)cc1 39.8 µM [inhibitor, single point]
C=CCN(c1ccccc1)S(=O)(=O)c1cccc(C(=O)NCC(c2ccc(OC)cc2)N2CCCCC2)c1 (stereo not drawn) 12.6 µM [inhibitor, partial curve, poor fit]
Cc1cccc2c1-c1sc(C(=O)NCCc3ccc(Cl)cc3)cc1CO2 39.8 µM [inhibitor, single point]
Oc1ccc(CN2CCc3ccccc3C2)c2cccnc12 2.51 µM [inhibitor, full curve, poor fit]
O=C(c1ccc([N+](=O)[O-])s1)N1CCCc2ccccc21 17.8 µM [inhibitor, partial curve]
COc1ccc(-c2nnc(NC(=O)c3ccc(S(=O)(=O)N4COCC4(C)C)cc3)o2)cc1 14.1 µM [inhibitor, partial curve]
COc1ccccc1NC(=O)Nc1nc(C(N)CCc2ccccc2)cs1 (stereo not drawn) 28.2 µM [inhibitor, single point]
CCc1nc2ccc(C(=O)Nc3ccc(OC)c(OC)c3)cn2c1N(C)CCC(C)C 31.6 µM [inhibitor, single point]
CCCN(CCC)Cc1c(C(=O)N/N=C/C(C)=C\c2ccccc2)nnn1-c1nonc1N 28.2 µM [inhibitor, single point]
Cc1ccc(C)c(N2CCN(CCCc3ccccc3)CC2)c1 17.8 µM [inhibitor, partial curve]
COc1ccc(C(=O)/C=C2/C(=O)Nc3ccccc32)cc1 20 µM [inhibitor, partial curve, poor fit]
N#C/C(=C\c1ccc(Sc2nc3ccccc3[nH]2)o1)c1ccccc1 39.8 µM [inhibitor, single point]
COCC(C)N1C(=O)Cc2c1nc(N)c1c(N)nc(N3CCN(c4ccccc4F)CC3)c(C#N)c21 (stereo not drawn) 20 µM [inhibitor, single point]
COC(=O)c1ccc2nc(Nc3nc4ccc(F)cc4s3)sc2c1 39.8 µM [inhibitor, single point]

Activity change, negative = inhibition, inconclusive:
Cc1cccc(NC(=S)NCc2ccccc2Cl)c1C -52.6% [inhibitor]

Activity change, negative = inhibition, inactive:
Cc1ccc(C)c(OCC(O)CN2C(C)CCCC2C)c1 (stereo not drawn) -14.9%
O=S1(=O)N[C@H](Cc2ccccc2)COc2cc(N3CC[C@H](O)C3)ccc21 13.7%
CCN1C(=O)[C@H]2[C@@H](c3ccc(-c4cc(C(C)=O)cs4)cc3)N[C@@](Cc3ccccc3)(C(=O)OC)[C@H]2C1=O 9.11%
CC(=O)N(C)c1ccc(C=C2C=Cc3ccccc32)cc1 -2.44%
COc1ccc(/C=N/NC(=S)Nc2ccccc2)cc1COc1cccc(C)c1C -5.38%
Nc1nc(-c2ccc(Br)cc2)c(S(=O)(=O)c2ccccc2)s1 1.05%
NC(=O)c1ccccc1NC(=O)NC1CCCCC1 9.65%
CCOC(=O)c1c(C)oc2nc(C)nc(NCc3ccc(C)cc3)c12 2%
COc1ccc(CC(=O)NC(C)CCc2ccccc2)cc1OC (stereo not drawn) -10.8%
COc1ccccc1C(=O)Nc1ccc(OCC(=O)N2CC(C)OC(C)C2)cc1 (stereo not drawn) 5.95%
CCOc1ccc(S(=O)(=O)N2CCN(C(=O)c3cc(C4CC4)nn3-c3ccccc3)CC2)cc1 7.27%
Nc1nc(NCCO)nc(NC2CCCCC2)c1[N+](=O)[O-] -21.8%
Cc1c(C(=O)OC2CCCC2)[nH]c2c1C(=O)CC(c1ccc(C(C)(C)C)cc1)C2 (stereo not drawn) 8.82%
Cc1ccc2oc(=O)c3cc(C(=O)NCCCN4CCN(C)CC4)sc3c2c1 3.35%
CN1CCO/C1=C(\C(Cl)=C(Cl)Cl)[N+](=O)[O-] -3.93%
Cn1cc(CCNC(=O)CC2C(=O)NCCN2CC(c2ccccc2)c2ccccc2)cn1 (stereo not drawn) 2.64%
COC(=O)Cn1cc(C(=O)C2CC2)c2ccccc21 -6.31%
COC(=O)c1c(-c2c(Cl)cccc2Cl)noc1NC(=O)NN1CCCCC1 -0.999%
O=C(N/N=C/c1ccccc1Cl)C1CC1 9.06%
COc1ccccc1N1CCN(c2nc3ccc(C)cc3nc2-n2nc(C)cc2C)CC1 -28.7%
Cc1cccc(-c2noc(-c3ccc(NCC4CCCO4)c([N+](=O)[O-])c3)n2)c1 (stereo not drawn) 14.7%
CC(=O)N1CCN(c2ccc(NC(=O)c3ccc4c(c3)OCO4)cc2)CC1 39.7%
COc1ccc(-c2csc(NC(=O)C3CSC4(C)CCC(=O)N34)n2)cc1 (stereo not drawn) 10.5%
